# From PubChem BioAssay AID360 (National Center for Advancing Translational Sciences (NCATS), 2006)
# Among all 48,000 compounds or so, about 550 (1.1%) were called active. The inconclusive results got no clear call from the source; some entries with a clear call stand among them for comparison. No stated cut-off is given here; in the data, active means potency below about 15 µM; inconclusive means mostly about 16 µM to 33 µM; inactive means weaker than that. No potency is given beside an inconclusive call; the fits are too rough.
# Molecular target: Lysosomal acid glucosylceramidase (Homo sapiens) (UniProt P04062)
# Experiment: Glucocerebrosidase;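 further: the screen sought inhibitors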
# Settings: purified enzyme, resorufin glucoside fluorescence (screen aimed at inhibitors), 20 min
# Procedure, shortened: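 Compounds titrated against 0.2 nM normal enzyme, 30 uM resorufin beta-D-glucopyranoside substrate, citrate/phosphate buffer with taurocholate and tween-20, pH 5.9. Reaction ran 20 min at room temperature; fluorescence (Ex 548/Em 600) gave AC50.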
# Potency means the concentration at half of the fitted maximal effect.
# Sequence of UniProt P04062 (P04062 whole entry, looked up): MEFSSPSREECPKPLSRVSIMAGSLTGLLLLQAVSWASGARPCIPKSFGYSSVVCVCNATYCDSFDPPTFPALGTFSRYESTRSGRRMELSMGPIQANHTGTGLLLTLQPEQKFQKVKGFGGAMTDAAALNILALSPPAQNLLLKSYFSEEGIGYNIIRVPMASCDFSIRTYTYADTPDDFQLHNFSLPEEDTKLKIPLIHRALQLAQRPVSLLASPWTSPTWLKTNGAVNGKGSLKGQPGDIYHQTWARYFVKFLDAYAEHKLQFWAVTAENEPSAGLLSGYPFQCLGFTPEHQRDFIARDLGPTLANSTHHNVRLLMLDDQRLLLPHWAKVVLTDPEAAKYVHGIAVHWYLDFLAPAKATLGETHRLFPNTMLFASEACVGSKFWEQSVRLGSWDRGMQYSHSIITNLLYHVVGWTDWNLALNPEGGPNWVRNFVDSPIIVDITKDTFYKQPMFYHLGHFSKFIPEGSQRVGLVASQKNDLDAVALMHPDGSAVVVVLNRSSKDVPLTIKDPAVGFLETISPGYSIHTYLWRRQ
row,Structure (SMILES),Potency
1,COc1ccc(Cl)cc1-n1c(C)cc(C(=O)O)c1C,inconclusive [increasing]
2,O=C(CC(c1ccccc1)c1cc(Br)ccc1O)NCCN1CCOCC1 (stereo unspecified),inconclusive [decreasing]
3,CCn1c(CNC(=O)c2cccc(C)c2)nnc1SCC(=O)Nc1cccc(OC)c1,inconclusive [decreasing]
4,CCc1c(C)n2nc(C)cc2[nH]c1=O,inconclusive [decreasing]
5,COc1ccc(CCNC(=O)c2cc(-c3ccccc3O)n[nH]2)cc1OC,inconclusive [decreasing]
6,CN1CCN(C(=O)c2cc3nc(-c4ccccc4)cc(C(F)(F)F)n3n2)CC1,inactive: > 76.9 µM
7,Cn1cccc1C(C(=O)NC1CCCCC1)N(C(=O)Cc1cccs1)c1ccc2c(c1)OCCO2 (stereo unspecified),inconclusive [decreasing]
8,CC(=O)Nc1ccc(-c2nnn(CC(=O)c3ccccc3)n2)cc1Cl,inactive: > 76.9 µM
9,CCCCn1cnc2cc(NCc3cccc(OC)c3O)ccc21,inconclusive [decreasing]
10,Cc1ccc(C)n1-c1cccc(N)c1,inconclusive [decreasing]
11,CCCOc1ccc(Cn2cnc3ccccc32)cc1,inconclusive [decreasing]
12,CCN(CCCNC(=O)CC(C(=O)N1CCc2ccccc21)n1ccnc1)c1cccc(C)c1 (stereo unspecified),inconclusive [decreasing]
13,Cc1nnc(NC(=O)c2ccccc2F)s1,active: 7.88 µM
14,CCc1c(C)nc2ncnn2c1NCCc1ccc(OC)cc1,inconclusive [decreasing]
15,COc1ccc(-n2nc3cc(C)c(N)c(Br)c3n2)cc1,inconclusive [increasing]
16,O=C1CC(c2ccccc2)Cc2nc(NCc3ccco3)ncc21 (stereo unspecified),inactive: > 76.9 µM
17,Cc1ccc(C2CC(=O)N3CN(c4ccc(Br)cc4)CSC3=C2C#N)o1 (stereo unspecified),inconclusive [decreasing]
18,COc1ccc2[nH]c(=O)c(C(c3nnnn3C3CCCC3)N(C)C3CCCCC3)cc2c1 (stereo unspecified),inconclusive [decreasing]
19,Cc1cc(-n2nc(C)cc2C)nc(N)n1,inactive: > 76.9 µM
20,COCCNC(=O)C(c1ccco1)N(C(=O)Cn1nnc2ccccc21)c1cc(C)ccc1C (stereo unspecified),inconclusive [decreasing]
21,COc1cc2cc(C(c3nnnn3C3CCCC3)N3CCCCCC3)c(=O)[nH]c2cc1OC (stereo unspecified),inactive: > 76.9 µM
22,COc1ccc(NC(=O)Cn2nnc(-c3ccccc3NC(=O)c3cccs3)n2)cc1,inactive: > 76.9 µM
23,CCn1c(=O)c(C2=NS(=O)(=O)c3ccccc3N2)c(O)c2ccccc21,inactive: > 76.9 µM
24,c1ccc(CCn2nnnc2C(c2cccs2)N2CCN(Cc3ccc4c(c3)OCO4)CC2)cc1 (stereo unspecified),inconclusive [decreasing]
25,O=C(C1CCC(Cn2c(=S)[nH]c3ccccc3c2=O)CC1)N1CCOCC1 (stereo unspecified),inconclusive [decreasing]
26,COc1cccc(C(c2nnnn2Cc2ccco2)N2CCN(c3cccc(C)c3C)CC2)c1OC (stereo unspecified),inconclusive [decreasing]

row,Structure (SMILES),Potency
1,CCOC(=O)CC1=CC(C)(CC(=O)OCC)C(C#N)(C#N)C(N)=C1C#N (stereo unspecified),active: 4.84 µM
2,Fc1ccccc1C(c1nnnn1Cc1ccc2c(c1)OCO2)N1CCN(Cc2ccccc2)CC1 (stereo unspecified),inconclusive [decreasing]
3,O=C(NCc1cccs1)c1ccc2c(c1)ncn2C1CCCC1,inconclusive [decreasing]
4,Nc1c2c(nc3ccn(Cc4ccccc4)c(=O)c13)CCC2,inconclusive [decreasing]
5,COc1cccc(-c2cc(C(F)(F)F)nc(N3CCOCC3)n2)c1,inconclusive [increasing]
6,Cn1c(CCNC(=O)c2ccco2)nc2cc(NS(=O)(=O)c3ccc(Cl)cc3)ccc21,inconclusive [decreasing]
7,c1ccc(-c2nc(N3CCCCCC3)nc(-n3ccnc3)n2)cc1,inconclusive [increasing]
8,O=C(NCc1ccccc1)N(Cc1cc2cc3c(cc2[nH]c1=O)OCO3)CC1CCCO1 (stereo unspecified),inconclusive [decreasing]
9,O=C(NC12CC3CC(CC(C3)C1)C2)N1CCN(S(=O)(=O)c2ccc(Cl)cc2)CC1,inconclusive [decreasing]
10,CN1/C(=C\C(=O)COC(=O)CN2C(=O)C3CC=CCC3C2=O)C(C)(C)c2ccccc21 (stereo unspecified),inactive: > 76.9 µM
11,COC(=O)CSc1nc2cc(C)ccc2cc1C#N,inactive: > 76.9 µM
12,O=C(CSc1nnc(-c2ccccn2)n1Cc1ccco1)c1ccc(Cl)cc1,inactive: > 76.9 µM
13,Cn1c(N2CCC(C(N)=O)CC2)nc2c1c(=O)n(Cc1cccc(Br)c1)c(=O)n2C,inconclusive [decreasing]
14,CCc1ccc2[nH]c(=O)c(CN(Cc3ccccc3)Cc3nnnn3Cc3ccco3)cc2c1,inconclusive [decreasing]
15,O=C(Nc1ccc2c(c1)OCO2)c1ccc(Br)s1,inconclusive [decreasing]
16,CCC(C)[C@H](N)c1nnc(SCc2cccc(F)c2)o1 (stereo partly specified),inconclusive [decreasing]
17,COc1ccc(OCC(=O)Nc2ccc(S(=O)(=O)N3CCCCCC3)cc2)cc1,inconclusive [decreasing]
18,O=C(Nc1cccnc1)c1ccc(Oc2ccccc2)cc1,active: 15.4 µM
19,CC(=O)Nc1ccc(NC(=O)c2cc(C)nn2-c2ccccc2)cc1,active: 12.3 µM
20,COc1ccc(CNc2nc(SC)n[nH]2)cc1OC,inactive: > 76.9 µM
21,CC(C)(C)OC(=O)N[C@@H](Cc1ccccc1)c1nnc(S(=O)(=O)Cc2ccccc2)o1,inconclusive [decreasing]
22,O=S1(=O)C=C(Sc2nc3ccccc3s2)c2ccccc21,active: 10.6 µM
23,CCSc1nc(-c2ccc(OC)cc2)n(-c2nc3ccccc3s2)n1,inactive: > 76.9 µM
24,N#Cc1cc2ccccc2nc1SCc1cccnc1,inconclusive [increasing]
25,COc1ccccc1S(=O)(=O)Cc1ccc(C(=O)N2CCN(c3cccc(Cl)c3)CC2)o1,inactive: > 76.9 µM
26,c1ccc(CNc2ncnc3c2cnn3-c2ccccc2)cc1,inconclusive [increasing]

row,Structure (SMILES),Potency
1,CCc1ccc2[nH]c(=O)c(CN(CCCN3CCOCC3)C(=O)Nc3cccc(Cl)c3)cc2c1,inconclusive [decreasing]
2,CCOC(=O)c1c(C)nn(Cc2ccccc2)c1N,inactive: > 76.9 µM
3,COc1ccc(C(CC(=O)NC(C)(C)C)n2cccc2)cc1 (stereo unspecified),inactive: > 76.9 µM
4,COC(=O)c1cccc(S(=O)(=O)N2CCC(NC(=O)NC34CC5CC(CC(C5)C3)C4)CC2)c1,inconclusive [decreasing]
5,O=C(Nc1ccccc1)N(CCc1nc2ccccc2[nH]1)C1CCCC1,inconclusive [decreasing]
6,CSc1ccc(C2C(C#N)=C(N)N(c3ccccc3)C3=C2C(=O)CCC3)cc1 (stereo unspecified),inconclusive [decreasing]
7,CC(=O)c1cccc(NC(=O)c2ccc(NS(=O)(=O)c3c(C)noc3C)cc2)c1,inconclusive [decreasing]
8,CC(C)(C)c1csc(NC(=O)c2ccc(Cl)s2)n1,active: 14.7 µM
9,CCCCn1c(=O)[nH]c(=O)c2c1nc(COC(=O)c1c(C)noc1C)n2CCC,inactive: > 76.9 µM
10,N#CC1=C(N)C(C#N)(C#N)C2(CCC3(CC2)OCCO3)C2CC3(CC=C12)OCCO3 (stereo unspecified),inactive: > 76.9 µM
11,O=C(CSc1nnc(-c2cccnc2)n1Cc1ccccc1)NCc1ccco1,inconclusive [decreasing]
12,CC1(C)Cc2cccc(OCC(=O)Nc3ccccc3N3CCOCC3)c2O1,inactive: > 76.9 µM
13,COc1cccc2cc(C(C)N(CCCN3CCOCC3)C(=O)Nc3ccccc3)oc12 (stereo unspecified),inconclusive [decreasing]
14,O=C(CN1CCN(c2ccccn2)CC1)Nc1ccc(Cl)c(C(F)(F)F)c1,inconclusive [decreasing]
15,OC(COCC1CC=CCC1)Cn1cnc2ccccc21 (stereo unspecified),inconclusive [decreasing]
16,O=C(Oc1ccccc1)c1ccc(COC(=O)c2cnccn2)cc1,inconclusive [increasing]
17,COc1ccc(N2CCN(C(c3ccccc3OC)c3nnnn3C3CCCC3)CC2)cc1 (stereo unspecified),inconclusive [decreasing]
18,CC(C)(C)c1nc(NCCN2CCOCC2)c2nnn(Cc3ccccc3Cl)c2n1,inconclusive [decreasing]
19,CCOc1ccc(OCC)c(NC(=O)c2ccc(CNc3c(N4CCOCC4)c(=O)c3=O)cc2)c1,inconclusive [decreasing]
20,Nc1nnc(SCc2ccc(F)cc2Cl)s1,inactive: > 76.9 µM
21,Cc1ccc2nc(C3CCN(C(=O)NCc4ccccc4)CC3)[nH]c2c1,inconclusive [decreasing]
22,COc1ccc(C)cc1NC(=O)c1cc2ccccc2o1,inconclusive [increasing]
23,Cc1ccc(S(=O)(=O)Cn2nnnc2C(c2ccccc2)N2CCN(c3ncccn3)CC2)cc1 (stereo unspecified),inconclusive [decreasing]
24,CCn1c(SCC(=O)c2ccc(NS(=O)(=O)c3ccccc3)cc2)nnc1-c1cccs1,inconclusive [decreasing]
